# Experimental data taken from the supplement of paper PMC8728848.
# This is one part of the list.
# B1: CBM32-1 (Clostridium perfringens) (protein)
# chain: MGSSHHHHHHSSGLVPRGSHMASGVEITEGVTVTAKGNTEGNTADLAIDGDLSTYWESSNDYKWIEVDLGGIYELSKIEIFNKDEAVYKYNIYASEDGENFNKIAYKNNDNVSDSNGNVHTIDNVRAGKIRIDVVQNSNSDRVNIAEINVFG
# What was measured:
# Assay in all cases: glycan array binding signal (z-score within array); higher = stronger binding
# Settings in all cases: glycan notation: IUPAC condensed, linker removed
# Gal(b1-2)Gal = target: Gal(b1-2)Gal
# Outline: (§1)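 The binding signal is a Z-score computed within each array and averaged over linkers. Arrays of the same protein sequence at different concentrations or buffers were also averaged together. Data originate from 3228 arrays in the Consortium for Functional Glycomics database, kept only where the protein sequence was available.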
# Gal(b1-3)Gal = target: Gal(b1-3)Gal
# Outline: as §1
# Gal(b1-3)Gal(b1-4)GlcNAc = target: Gal(b1-3)Gal(b1-4)GlcNAc
# Outline: as §1
# Gal(b1-3)GalNAc = target: Gal(b1-3)GalNAc
# Outline: as §1
# [1] = target: Gal(b1-3)GalNAc(b1-3)Gal(a1-4)Gal(b1-4)Glc
# Outline: as §1
# [2] = target: Gal(b1-3)GalNAc(b1-4)Gal(b1-4)Glc
# Outline: as §1
# [3] = target: Gal(b1-3)GalNAc(b1-4)[Neu5Ac(a2-3)]Gal(b1-4)Glc
# Outline: as §1
# Gal(b1-3)GlcNAc = target: Gal(b1-3)GlcNAc
# Outline: as §1
# [4] = target: Gal(b1-3)GlcNAc(b1-2)Man(a1-3)[Gal(b1-3)GlcNAc(b1-2)Man(a1-6)]Man(b1-4)GlcNAc(b1-4)GlcNAc
# Outline: as §1
# [5] = target: Gal(b1-3)GlcNAc(b1-3)Gal(b1-3)GlcNAc
# Outline: as §1
# [6] = target: Gal(b1-3)GlcNAc(b1-3)Gal(b1-4)Glc
# Outline: as §1
# [7] = target: Gal(b1-3)GlcNAc(b1-3)Gal(b1-4)GlcNAc
# Outline: as §1
# [8] = target: Gal(b1-3)[Fuc(a1-4)]GlcNAc
# Outline: as §1
# [9] = target: Gal(b1-3)[Fuc(a1-4)]GlcNAc(b1-3)Gal(b1-3)[Fuc(a1-4)]GlcNAc
# Outline: as §1
# [10] = target: Gal(b1-3)[Fuc(a1-4)]GlcNAc(b1-3)Gal(b1-4)GlcNAc
# Outline: as §1
# [11] = target: Gal(b1-3)[Fuc(a1-4)]GlcNAc(b1-3)Gal(b1-4)[Fuc(a1-3)]GlcNAc
# Outline: as §1
# [12] = target: Gal(b1-3)[GlcNAc(b1-6)]GalNAc
# Outline: as §1
# [13] = target: Gal(b1-3)[Neu5Ac(a2-6)]GalNAc
# Outline: as §1
# [14] = target: Gal(b1-3)[Neu5Ac(a2-6)]GlcNAc(b1-6)Gal(b1-4)Glc
# Outline: as §1
# [15] = target: Gal(b1-3)[Neu5Ac(b2-6)]GalNAc
# Outline: as §1
# [16] = target: Gal(b1-4)GalNAc(a1-3)[Fuc(a1-2)]Gal(b1-4)GlcNAc
# Outline: as §1
# [17] = target: Gal(b1-4)GalNAc(b1-3)[Fuc(a1-2)]Gal(b1-4)GlcNAc
# Outline: as §1
# Gal(b1-4)Glc = target: Gal(b1-4)Glc
# Outline: as §1
# Gal(b1-4)Glc6S = target: Gal(b1-4)Glc6S
# Outline: as §1
# Gal(b1-4)GlcNAc = target: Gal(b1-4)GlcNAc
# Outline: as §1
# [18] = target: Gal(b1-4)GlcNAc(a1-6)Gal(b1-4)GlcNAc
# Outline: as §1
# [19] = target: Gal(b1-4)GlcNAc(b1-2)Man(a1-3)[Gal(b1-4)GlcNAc(b1-2)Man(a1-6)]Man(b1-4)GlcNAc(b1-4)GlcNAc
# Outline: as §1
# [20] = target: Gal(b1-4)GlcNAc(b1-3)Gal(b1-3)GlcNAc
# Outline: as §1
# [21] = target: Gal(b1-4)GlcNAc(b1-3)Gal(b1-4)Glc
# Outline: as §1
# [22] = target: Gal(b1-4)GlcNAc(b1-3)Gal(b1-4)GlcNAc
# Outline: as §1
# [23] = target: Gal(b1-4)GlcNAc(b1-3)Gal(b1-4)GlcNAc(b1-3)Gal(b1-4)GlcNAc
# Outline: as §1
# [24] = target: Gal(b1-4)GlcNAc(b1-3)Gal(b1-4)[Fuc(a1-3)]GlcNAc(b1-3)Gal(b1-4)[Fuc(a1-3)]GlcNAc
# Outline: as §1
# [25] = target: Gal(b1-4)GlcNAc(b1-3)GalNAc
# Outline: as §1
# [26] = target: Gal(b1-4)GlcNAc(b1-3)[Gal(b1-4)GlcNAc(b1-6)]Gal(b1-4)GlcNAc
# Outline: as §1
# [27] = target: Gal(b1-4)GlcNAc(b1-3)[GlcNAc(b1-6)]Gal(b1-4)GlcNAc
# Outline: as §1
# [28] = target: Gal(b1-4)GlcNAc(b1-6)Gal(b1-4)GlcNAc
# Outline: as §1
# [29] = target: Gal(b1-4)GlcNAc(b1-6)Gal(b1-4)GlcNAc(b1-6)GalNAc
# Outline: as §1
# [30] = target: Gal(b1-4)GlcNAc(b1-6)GalNAc
# Outline: as §1
# [31] = target: Gal(b1-4)GlcNAc(b1-6)[Gal(b1-3)]GalNAc
# Outline: as §1
# Gal3S(b1-3)GalNAc = target: Gal3S(b1-3)GalNAc
# Outline: as §1
# Gal3S(b1-3)GlcNAc = target: Gal3S(b1-3)GlcNAc
# Outline: as §1
# [32] = target: Gal3S(b1-3)[Fuc(a1-4)]GlcNAc
# Outline: as §1
# Gal3S(b1-4)Glc = target: Gal3S(b1-4)Glc
# Outline: as §1
# Gal3S(b1-4)Glc6S = target: Gal3S(b1-4)Glc6S
# Outline: as §1
binder,measurement,setting,value
B1,glycan array binding signal (z-score),Gal(b1-2)Gal,0.823
same,glycan array binding signal (z-score),Gal(b1-3)Gal,-0.678
same,glycan array binding signal (z-score),Gal(b1-3)Gal(b1-4)GlcNAc,-0.945
same,glycan array binding signal (z-score),Gal(b1-3)GalNAc,-0.444
same,glycan array binding signal (z-score),[1],0.817
same,glycan array binding signal (z-score),[2],-0.14
same,glycan array binding signal (z-score),[3],-0.651
same,glycan array binding signal (z-score),Gal(b1-3)GlcNAc,-0.333
same,glycan array binding signal (z-score),[4],-0.483
same,glycan array binding signal (z-score),[5],-0.209
same,glycan array binding signal (z-score),[6],-0.662
same,glycan array binding signal (z-score),[7],-0.427
same,glycan array binding signal (z-score),[8],-0.22
same,glycan array binding signal (z-score),[9],-0.399
same,glycan array binding signal (z-score),[10],-0.163
same,glycan array binding signal (z-score),[11],-0.252
same,glycan array binding signal (z-score),[12],-0.458
same,glycan array binding signal (z-score),[13],-0.587
same,glycan array binding signal (z-score),[14],-0.836
same,glycan array binding signal (z-score),[15],-0.177
same,glycan array binding signal (z-score),[16],-0.671
same,glycan array binding signal (z-score),[17],0.844
same,glycan array binding signal (z-score),Gal(b1-4)Glc,-0.18
same,glycan array binding signal (z-score),Gal(b1-4)Glc6S,-0.266
same,glycan array binding signal (z-score),Gal(b1-4)GlcNAc,-0.775
same,glycan array binding signal (z-score),[18],-0.478
same,glycan array binding signal (z-score),[19],0.131
same,glycan array binding signal (z-score),[20],-0.087
same,glycan array binding signal (z-score),[21],-0.585
same,glycan array binding signal (z-score),[22],-0.492
same,glycan array binding signal (z-score),[23],0.889
same,glycan array binding signal (z-score),[24],-0.448
same,glycan array binding signal (z-score),[25],0.629
same,glycan array binding signal (z-score),[26],-0.343
same,glycan array binding signal (z-score),[27],-0.268
same,glycan array binding signal (z-score),[28],-0.302
same,glycan array binding signal (z-score),[29],-0.419
same,glycan array binding signal (z-score),[30],-0.567
same,glycan array binding signal (z-score),[31],-0.263
same,glycan array binding signal (z-score),Gal3S(b1-3)GalNAc,-0.59
same,glycan array binding signal (z-score),Gal3S(b1-3)GlcNAc,0.183
same,glycan array binding signal (z-score),[32],-0.231
same,glycan array binding signal (z-score),Gal3S(b1-4)Glc,-0.075
same,glycan array binding signal (z-score),Gal3S(b1-4)Glc6S,3.21
